Laboratory results: PubChem BioAssay AID686979 (National Center for Advancing Translational Sciences (NCATS), 2013)
The whole screen tested about 420,000 compounds, of which about 50,000 (12%) were called active. This list was built around the results that the source calls inconclusive (neither active nor inactive); the mix of calls is not that of the screen. Calls follow the shape of the dose curve; as a rule, active = well fitted inhibition curve with a large enough effect; inconclusive = small, poorly fitted or top-dose-only effect; inactive = flat fitted curve, though single readings scatter. Potencies of inconclusive entries are left out as doubtful fits.

Test: qHTS for Inhibitors of human tyrosyl-DNA phosphodiesterase 1 (TDP1): qHTS in cells in presence of CPT; also: nearly all actives have a fitted effect of over 55% in size
Conditions: chicken DT40 Tdp1-/-;hTDP1 cells + 20 nM CPT, ATP luminescence, 48 h; activity change, negative = growth inhibition: at 46.2 µM (top of the series)
Method in brief: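 Cell growth measured by CellTiter-Glo luminescence after a minimum 48 h, 37 C compound exposure with 20 nM CPT in Tdp1-knockout DT40 cells stably expressing hTDP1, seeded 400/well; qHTS titration format.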
% is scaled to controls: 0 for no effect and ±100 for the full control effect; potency is read from the fitted curve at half-maximal effect; tags tell the direction and shape of the fitted curve.

Structure (SMILES) | Potency | activity change, negative = growth inhibition
C=Cc1ccc(Cn2c(=O)n(CCCOC)c(=O)c3sccc32)cc1 | inconclusive [inhibitor, single point] | –
CC(C)n1nc(C(=O)OCC(=O)N2CC(=O)Nc3ccccc32)c2ccccc2c1=O | inactive | –
Cc1cc(C(O)c2ncc(-c3cccc4ccccc34)[nH]2)ccc1F (stereo not drawn) | inconclusive [inhibitor, single point] | –
COc1ccc(CCNC(=O)c2cnn(-c3cccc(C)c3)c2C2CCN(C(=O)OC(C)(C)C)CC2)cc1OC | inconclusive [inhibitor, single point] | –
CCN(C(=O)c1ccc2c(=O)n3c(nc2c1)CCCCC3)c1ccccc1C | inconclusive [inhibitor, single point] | –
COc1cccc(-c2cc3nc4c(c(NCC(C)(C)CN(C)C)n3n2)CCCC4)c1 | inconclusive [inhibitor, single point] | –
CCc1ccccc1NC(=S)N1CCNC(=O)C1CC(=O)OC (stereo not drawn) | inconclusive [inhibitor, single point] | –
CC(C)COc1ccc(C(=O)N2CCCCC2CCN2CCCCC2)cc1 (stereo not drawn) | inconclusive [inhibitor, single point] | –
COc1ccc(N2C(=O)CC(SC(C)C)C2=O)cc1 (stereo not drawn) | inactive | –
CCOC(=O)C(NCCCCl)c1ccccc1 (stereo not drawn) | inactive | –
c1ccc2c(c1)OCC(c1nnc3sc(-c4cnccn4)nn13)O2 (stereo not drawn) | inconclusive [inhibitor, single point] | –
COc1cccc(C2c3[nH]c4ccccc4c3C[C@H]3C(=O)N(c4ccccc4C(=O)N4CCCC4C(=O)O)C(=O)N23)c1 (stereo partly drawn) | inactive | –
Cc1cccc(-c2nnn3c2nc(NCc2ccc4c(c2)OCO4)c2ccccc23)c1 | active: 23.1 µM | –
CCCOc1ccc(/C=N/NC(=S)Nc2ccccc2[N+](=O)[O-])c(O)c1 | active: 5.8 µM | –
O=C(COC(=O)CCSc1ccccc1)Nc1cc(F)ccc1F | inactive | –
CCc1ccc([C@H]2C(C(=O)O)=C[C@@H](CC3CCCC3)N2S(=O)(=O)c2ccc(C)cc2)cc1 | inconclusive [inhibitor, single point] | –
C[C@H](NC(=O)c1nc[nH]c1C(=O)N1CCN(C(=O)OC(C)(C)C)CC1)C(=O)OC(C)(C)C | inactive | –
Oc1ccc(Nc2nc(NCC3CCCO3)c3ccccc3n2)cc1 (stereo not drawn) | active: 23.1 µM | –
COc1ccc(/C=C/C(=O)NC(=S)NNC(=O)c2c(-c3ccccc3)noc2C)cc1 | inconclusive [inhibitor, single point] | –
CCOC(=O)C1=C(C)C2C3C(=O)N(c4ccc(C)cc4C)C(=O)C3C1(C)C1C(=O)N(c3ccc(C)cc3C)C(=O)C21 (stereo not drawn) | inactive | –
CCCOc1ccc(CSC(=N)N)cc1C(=O)OC | inconclusive [inhibitor, single point] | –
CCOC(=O)c1ccc(N2C(=O)CC(N3CC(C)OC(C)C3)C2=O)cc1 (stereo not drawn) | inconclusive [inhibitor, single point] | –
CN(Cc1c(C(=O)N/N=C/c2ccccc2O)nnn1-c1nonc1N)C1CCCCC1 | inconclusive [inhibitor, single point] | –

Structure (SMILES) | Potency | activity change, negative = growth inhibition
O=C(Oc1ccccc1)N1CCC2(CCCN(c3ccccn3)C2)CC1 | inactive | –
Cc1ccc(Cc2cc(-c3ccc(C)cc3)n[nH]c2=O)cc1 | inconclusive [inhibitor, single point] | –
CN(C)S(=O)(=O)c1cccc(C(=O)Nc2ccc3c(c2)CCC3)c1 | active: 16.4 µM | –
CCSC1=NC(=O)/C(=C2/C=Cc3ccccc3N2CC)S1 | inconclusive [inhibitor, partial curve] | –
CCN1C(=O)[C@H]2[C@@H](c3ccc(-c4cccc(Cl)c4)cc3)N[C@@](CC(C)C)(C(=O)OC)[C@H]2C1=O | active: 18.4 µM | –
CCOc1ccc(S(=O)(=O)NCc2ccco2)c2ccccc12 | inconclusive [inhibitor, single point] | –
COc1ccccc1N(Cc1cc(=O)[nH]c2ccccc12)C(=O)c1ccc([N+](=O)[O-])cc1 | active: 20.6 µM | –
OC(COc1ccc2ccccc2c1Cl)CN1CCOCC1 (stereo not drawn) | inactive | –
CCc1ccc(CN2CCc3nc(N4CCN(c5ccccc5F)CC4)ncc3C2)cc1 | inconclusive [inhibitor, partial curve] | –
CCOC(=O)[C@]12CCC=C1N(CCC1=CCCCC1)C(=O)[C@H](CC(=O)N1CCN(C(=O)c3ccco3)CC1)C2 | inconclusive [inhibitor, single point] | –
CCCCOc1cccc(C(=O)Nc2cc(NC(=O)c3ccco3)ccc2OC)c1 | active: 18.4 µM | –
COc1ccc(/C=[N+](\[O-])C2N(c3ccccc3)C(=S)SC2(C)C)cc1OC (stereo not drawn) | inconclusive [inhibitor, single point] | –
O=C(c1cc(-c2ccncc2)nc2ccc(Br)cc12)N1CCN(c2ccccn2)CC1 | inconclusive [inhibitor, partial curve, poor fit] | –
CCCN(CCC)CCCNC(=O)c1cc2cc3ccc(OC)cc3nc2o1 | inconclusive [inhibitor, single point] | –
N#CC1(NC(=O)COc2cc(F)ccc2[N+](=O)[O-])CCCCC1 | inconclusive [inhibitor, single point] | –
COc1cccc2c(C)nc(Nc3nc(CSc4nnc(C)s4)cc(=O)[nH]3)nc12 | active: 23.1 µM | –
Cc1ccc(NC(=O)COC(=O)c2c(C)nn(-c3ccccc3)c2C)cc1 | inconclusive [inhibitor, single point] | –
Cc1ccc(OCC(=O)Nc2ccccc2C(=O)N2CCCC2)cc1 | inconclusive [inhibitor, partial curve, poor fit] | –
Cc1ccc(Cl)cc1N1CCN(C(=O)c2c(C)oc3ncnc(N4CCCCC4)c23)CC1 | active: 9.2 µM | –
COc1ccc(/C=N/NC(=O)Cc2ccc(Cl)cc2)cc1OC | inconclusive [inhibitor, single point] | –
Cc1ccc(Oc2nccc(-c3ccc(Cl)cc3)n2)cc1 | inconclusive [inhibitor, full curve, poor fit] | –
COc1cccc(NC(=O)CCc2c(C)nc3nc(CNC(=O)c4cccc(F)c4)nn3c2C)c1 | inconclusive [inhibitor, single point] | –
O=C(CSc1nc(-c2ccco2)cc(C(F)(F)F)n1)Nc1ccc(C(=O)N2CCOCC2)cc1 | inconclusive [inhibitor, partial curve] | –

Structure (SMILES) | Potency | activity change, negative = growth inhibition
CN1CCN(c2ccc(Cl)cc2NC(=O)c2ccc(S(=O)(=O)N(C)C)cc2)CC1 | active: 18.4 µM | –
CC(=O)N1CCC2(CCCN(c3ccc(-c4ccccc4)cc3)C2)CC1 | inconclusive [inhibitor, single point] | –
CC(c1ccccc1)n1cc2c(c1-c1ccccc1Br)c(=O)n(C)c(=O)n2C (stereo not drawn) | active: 16.4 µM | –
Cc1ccc2c(c1)-c1c(cnc3cc(-c4ccc(F)cc4)nn13)CO2 | inactive | –
Cc1ccc(-c2nnn(CC(=O)N(c3ccccc3F)C(C(=O)NCC3CCCO3)c3c[nH]c4ccccc34)n2)cc1 (stereo not drawn) | inconclusive [inhibitor, single point] | –
COc1ccc(Oc2ncc3nc(-c4ccc(F)cc4)c(=O)n(C4CC4)c3n2)cc1 | inconclusive [inhibitor, partial curve, poor fit] | –
C#CCOc1ccc(-c2nnc(Nc3ccc(NC(C)=O)cc3)c3ccccc23)cc1 | inconclusive [inhibitor, single point] | –
C=CCc1cc(/C=N\NC(=O)CSc2nnc(CCCc3ccc(OC)c(C)c3)o2)cc(OC)c1O | inconclusive [inhibitor, single point] | –
Cc1oc2ccc(O)c(CN3CCCC3)c2c1C(=O)Nc1ccc(C(C)C)cc1 | active: 23.1 µM | –
O=C(COc1ccccc1)N=C1SC2CS(=O)(=O)CC2N1c1ccc(F)cc1 (stereo not drawn) | inactive | –
CCOC(=O)CNC(=O)C1c2ccccc2Oc2ccccc21 | inactive | –
N[C@@H](Cc1ccc(F)cc1)C(=O)O | inconclusive [inhibitor, single point] | –
CCN(CC)c1ccc(C(=O)N/N=C/c2ccc(OC)cc2OC)cc1 | inconclusive [inhibitor, single point] | –
CCN1CCN(c2ccc(S(=O)(=O)N3CCCCC3)cc2NC(=O)c2cccc(NC(C)=O)c2)CC1 | inactive | –
Cc1nc2ccccc2n1CC(=O)NC(C)C1CC2CCC1C2 (stereo not drawn) | active: 1.46 µM | –
COc1ccc(-c2cc(-c3ccc(C)cc3)n[nH]2)c(O)c1 | active: 25.9 µM | –
Cc1[nH]n(-c2ccccc2)c(=O)c1N=Nc1ccc2c(c1)OCCO2 | inconclusive [inhibitor, single point] | –
CCCN(C(=O)c1cccc(S(=O)(=O)N2CCN(Cc3ccccc3)CC2)c1)C1CCS(=O)(=O)C1 (stereo not drawn) | – | inconclusive: -35.5% [inhibitor]
CCc1ccc(C(C)NC(=O)Cn2cnc3c(=O)n(C)c(=O)n(C)c32)cc1 (stereo not drawn) | inactive | –
COc1ccc(C(CNC(=O)COc2ccc(F)cc2Br)N2CCCC2)cc1 (stereo not drawn) | inconclusive [inhibitor, partial curve] | –
CCOCCCNC(=O)C(c1ccc(Cl)cc1)N(Cc1ccc2c(c1)OCO2)C(=O)CNC(C)=O (stereo not drawn) | inactive | –
CN1C(=O)c2cccc3c(S(=O)(=O)NCc4ccco4)ccc1c23 | inconclusive [inhibitor, partial curve] | –
